# Assay results: the BET-seq Pho4 binding data (Le et al. 2018)
# Some of the results follow. The energies were worked out here from pooled read counts, against the library average; single values are noisy.
# Biological target: T1, Pho4 (S. cerevisiae) (UniProt P07270)
# T1 sequence: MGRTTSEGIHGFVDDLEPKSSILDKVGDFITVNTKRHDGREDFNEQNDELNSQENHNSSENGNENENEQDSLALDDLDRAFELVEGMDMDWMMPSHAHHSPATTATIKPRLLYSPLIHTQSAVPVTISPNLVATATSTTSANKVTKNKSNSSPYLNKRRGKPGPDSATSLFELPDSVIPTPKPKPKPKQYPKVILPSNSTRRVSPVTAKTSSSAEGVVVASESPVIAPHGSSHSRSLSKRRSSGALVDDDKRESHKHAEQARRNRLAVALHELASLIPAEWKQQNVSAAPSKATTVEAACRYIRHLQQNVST
# Assay: relative binding free energy (BET-seq); higher = weaker binding
# Conditions: reference: library average
row,Sequence,relative binding free energy
1,TATTGCACGTGGTATT,-0.12 kcal/mol
2,ATAGTCACGTGTTATT,0 kcal/mol
3,CCTTTCACGTGGTGTG,0.08 kcal/mol
4,TATGTCACGTGATGGT,0.22 kcal/mol
5,GGAATCACGTGTTTAA,0.15 kcal/mol
6,GTCGGCACGTGGGCTG,-0.1 kcal/mol
7,TTATACACGTGCATTG,0.03 kcal/mol
8,TTGAACACGTGCATGG,0.1 kcal/mol
9,AGTTGCACGTGTGAGC,-0.02 kcal/mol
10,AGGGTCACGTGTGGCG,0.18 kcal/mol
11,GGCGTCACGTGGGGAT,0.03 kcal/mol
12,TACTTCACGTGAGAGG,0.39 kcal/mol
13,GCGCACACGTGGTGGG,-0.09 kcal/mol
14,AAGGGCACGTGTTGAC,-0.01 kcal/mol
15,GTTTTCACGTGATTCA,0.38 kcal/mol
16,CGTGACACGTGTTTGC,0.04 kcal/mol

row,Sequence,relative binding free energy
1,TCGGTCACGTGCGGTA,0.1 kcal/mol
2,GTGAGCACGTGGGGAA,-0.17 kcal/mol
3,ATTGACACGTGCTGTA,-0.06 kcal/mol
4,TATTTCACGTGTAGTT,0.27 kcal/mol
5,CGATACACGTGTATGT,0.18 kcal/mol
6,TAAGTCACGTGAAAGT,0.26 kcal/mol
7,GTAGCCACGTGGGGTA,-0.2 kcal/mol
8,GGGCGCACGTGTGTGA,0.05 kcal/mol
9,GGAATCACGTGGGGAC,0.14 kcal/mol
10,TTTTACACGTGGACAG,0.21 kcal/mol
11,TCGTGCACGTGTGCGT,-0.2 kcal/mol
12,TTTGGCACGTGAAGAA,0.09 kcal/mol
13,TCTTGCACGTGCGGAG,0.12 kcal/mol
14,ATCCGCACGTGGTTGG,-0.18 kcal/mol
15,AAAATCACGTGAAGGG,0.25 kcal/mol
